Variants at the floor of the assay are shown more often than the library holds them.
B1: tRNA (parent)
chain: CUCUCGGUAGCCAAGUUGGUUUAAGGCGCAAGACUUUAAUUUAUCACUACGAAAUCUUGAGAUCGGGCGUUCGACUCGCCCCCGGGAGAUUUUUUCCUCGAGCAA

Variants of: B1
Test: nonsense suppression (GFP-seq) (ratio to wild type); higher = more function; SUP4oc tRNA, yeast GFP reporter sort-seq
Method in brief: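 Nonsense suppression (GFPSEQ) is the median GFP/RFP ratio of each sorting bin, weighted by the variant's estimated share of cells in that bin and expressed relative to the unmutated parent tRNA. Yeast strains carried genome-integrated variants of an ochre-suppressor tRNA from a library with ~3% random mutations, plus a galactose-driven GFP ochre reporter and RFP, and were grown in raffinose/galactose medium containing 80 mg/L adenine. Cells were sorted into GFP/RFP bins, each bin was Illumina-sequenced (phred ≥30), and variants were kept only with ≥100 reads and ≥30 cells.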

| Variant | nonsense suppression |
| --- | --- |
| A9G C56A | ≤ 0.026 |
| A9G C56U | ≤ 0.026 |
| A9C A33U | ≤ 0.026 |
| A9U U21C C34U U35A U71C G73A | ≤ 0.026 |
| A9G A30C C34U G59C U70G | ≤ 0.026 |
| A9C A30G U58C U63G | ≤ 0.026 |
| A9U G65A G67A C72A | ≤ 0.026 |
| A9C A30G U57A G84A | ≤ 0.026 |
| A9G A30G C68U | ≤ 0.026 |
| A9G G73U | 0.053 |
| A9G G73A | 0.12 |
| A9C G67C | ≤ 0.026 |
| A9C G67A | ≤ 0.026 |
| A9G A23U | ≤ 0.026 |
| A9C U20C A60C | ≤ 0.026 |
| A9G C34U | ≤ 0.026 |
| A9U G86A | 0.0496 |
| A9C U55A U58A | ≤ 0.026 |
| A9C A14G G19U G88A | ≤ 0.026 |
| A9U C11U G28C G32C G88U | ≤ 0.026 |
| A9U G15A U20G | ≤ 0.026 |
| A9C G69A | ≤ 0.026 |
| A9G A31C G32C U70A C77U | ≤ 0.026 |
| A9C A62C G69C G84C | ≤ 0.026 |

| Variant | nonsense suppression |
| --- | --- |
| A9U G15U G19U C82G | ≤ 0.026 |
| A9G C83G G88A | ≤ 0.026 |
| A9C A33U G61U | ≤ 0.026 |
| A9C C11U C27U G86U | ≤ 0.026 |
| A9C U21G U70G | ≤ 0.026 |
| A9G U16A | 0.845 |
| A9C C12U A24U G84U | ≤ 0.026 |
| A9G U17C | 0.113 |
| A9U A33U G85C | ≤ 0.026 |
| A9U G32U A74C | ≤ 0.026 |
| A9C U17A C72G | ≤ 0.026 |
| A9C A31G G84U A89C | ≤ 0.026 |
| U8G U21G C34G | ≤ 0.026 |
| A9C A33G C34A U63G | ≤ 0.026 |
| A9G G66A G67U A74G | ≤ 0.026 |
| A9G C11U G67C C68G C80U | ≤ 0.026 |
| A9U C12A G73A | ≤ 0.026 |
| A9U C34A C56A C72A | ≤ 0.026 |
| A9C G69C G73A | ≤ 0.026 |
| A9G C27G C29G G66C | ≤ 0.026 |
| A9U G10C C11G A33G U76C G88A | ≤ 0.026 |
| A9G G10A | 0.0344 |
| A9G G10C | ≤ 0.026 |
| A9C G15A C34U C83G | ≤ 0.026 |

| Variant | nonsense suppression |
| --- | --- |
| A9U U17G C77A | ≤ 0.026 |
| A9C U20G G61U C68U | ≤ 0.026 |
| A9U C68A U76C C82A | ≤ 0.026 |
| A9U C12G U35G C72A | ≤ 0.026 |
| A9C G19A G86A | ≤ 0.026 |
| A9C C12A U58A A62G | ≤ 0.026 |
| A9C A33G G59C | ≤ 0.026 |
| U8G U22C A23C G26U | ≤ 0.026 |
| A9U A33U C81U A87G | ≤ 0.026 |
| A9G A24G U63A G84A | ≤ 0.026 |
| U8G U55A G86A | ≤ 0.026 |
| A9G G67C | ≤ 0.026 |
| A9G G67U | ≤ 0.026 |
| A9G A62C | ≤ 0.026 |
| A9C U22C C29A G85U | ≤ 0.026 |
| A9G U22A G25U | ≤ 0.026 |
| A9G C79A G88C | ≤ 0.026 |
| A9G C75A | 0.762 |
| U8G U57A A62U | ≤ 0.026 |
| A9U C11U A23C A24G A33U G61C A89G | ≤ 0.026 |
| A9U G65A C82A | ≤ 0.026 |
| A9U U17C | 0.128 |
| A9G A23G U71A C79U G88A | ≤ 0.026 |
| A9G G19U C72G A89C | ≤ 0.026 |

| Variant | nonsense suppression |
| --- | --- |
| A9G U21G A74U C77U | ≤ 0.026 |
| A9G U22G A31C C68A | ≤ 0.026 |
| A9G G59U C77U | ≤ 0.026 |
| A9G G18U | ≤ 0.026 |
| A9C C27A U58G | ≤ 0.026 |
| A9C G18A U76C | ≤ 0.026 |
| A9C A23G G32A G85A | ≤ 0.026 |
| A9C A60C C80G | ≤ 0.026 |
| A9U G67C G86C | ≤ 0.026 |
| A9U C12U A30U C68U C81G | ≤ 0.026 |
| A9G A30G G65C | ≤ 0.026 |
| A9C C34G U35A G66C | ≤ 0.026 |
| A9G U58A | ≤ 0.026 |
| A9G U17G U21G G88A | ≤ 0.026 |
| A9U A24C C79U | ≤ 0.026 |
| A9C U17C C27U G69A | ≤ 0.026 |
| A9U U22A A23U U63G A89C | ≤ 0.026 |
| A9G G65A C81U A89C | ≤ 0.026 |
| A9C A13C A87C | ≤ 0.026 |
| A9C A30C G61U | ≤ 0.026 |
| A9U G61C | 0.197 |
| A9U G61U | 0.573 |
| A9G C27G G73C | ≤ 0.026 |
| A9U G26U | ≤ 0.026 |

| Variant | nonsense suppression |
| --- | --- |
| A9G C11A G18U A31U A62C C82A | ≤ 0.026 |
| A9C C11A U35C | ≤ 0.026 |
| A9C U21C A24U U63A G69U | ≤ 0.026 |
| A9G U35G G86C | ≤ 0.026 |
| A9G U76G G86C | ≤ 0.026 |
| A9G G65C A89G | ≤ 0.026 |
| A9G C11U G32C | ≤ 0.026 |
| A9U A14C G69U C83G G84A | ≤ 0.026 |
| A9U A23G A54C G69U G85C | ≤ 0.026 |
| A9G U22G | 0.254 |
| A9U G28A C75U | 0.0978 |
| U8G U71G | ≤ 0.026 |
| A9G U20G G28C U35G | ≤ 0.026 |
| A9U G15U U16G A31U C34U C75U C82A | ≤ 0.026 |
| A9G U63C A74U C75U C79U | ≤ 0.026 |
| A9U A54C G69A U71G | ≤ 0.026 |
| A9C U21G A33U G59A U71G G73A | ≤ 0.026 |
| A9G U55C G69C U71A C80G | ≤ 0.026 |
| A9G U16A G59U G86C | ≤ 0.026 |
| A9C U20A U76A C77A | ≤ 0.026 |
| A9C G18U | ≤ 0.026 |
| A9C A60C C68A G69C | ≤ 0.026 |
| A9C C11U C27U | ≤ 0.026 |
| A9G G66C G78A | ≤ 0.026 |

| Variant | nonsense suppression |
| --- | --- |
| A9U G15C U20C A30U A33G U57G C81G | ≤ 0.026 |
| A9G A13C U16C A33G | ≤ 0.026 |
| A9G G61U U71C | ≤ 0.026 |
| A9C C11G A54C G67C C72A | ≤ 0.026 |
| A9G C80G G85A | ≤ 0.026 |
| A9C G15A | ≤ 0.026 |
| A9C C12G U70C | ≤ 0.026 |
| A9G C27U C81G G85C | ≤ 0.026 |
| A9C U17G C34U C77G C83G | ≤ 0.026 |
| A9U C34A | ≤ 0.026 |
| A9G G86A | ≤ 0.026 |
| A9U A54U | 0.222 |
| A9U G66U | ≤ 0.026 |
| U8G U35A U57G | ≤ 0.026 |
| A9C A74C U76C A87G | ≤ 0.026 |
| A9C G15A A33C U70A | ≤ 0.026 |
| A9C A33G G84C | ≤ 0.026 |
| A9G U20G C75G | 0.831 |
| A9C C56U C75G G86C | ≤ 0.026 |
| A9U A14C A30G | ≤ 0.026 |
| A9U C12U U16C U57G A62G | ≤ 0.026 |
| A9U A31U G67A G85U A89G | ≤ 0.026 |
| A9G C82U | 0.531 |
| A9G G28C U76G | ≤ 0.026 |

| Variant | nonsense suppression |
| --- | --- |
| A9G A30G G61A | 0.291 |
| A9C A31U C77G | ≤ 0.026 |
| A9G A24U G66U C68U G78A | ≤ 0.026 |
| A9G U20A U22G C72U C77U | ≤ 0.026 |
| A9G C83A | ≤ 0.026 |
| A9U G15A | 0.0449 |
| A9C G59C G73A | ≤ 0.026 |
| A9U G19C C72G | ≤ 0.026 |
| A9U C82G | ≤ 0.026 |
| A9U G73A | 0.0814 |
| A9G A33C | ≤ 0.026 |
| A9U G15U A30U A31G G69U G86C | ≤ 0.026 |
| A9G A14C A54G G69U | ≤ 0.026 |
| A9C C56U A62U | ≤ 0.026 |
| A9C G19A A31U | ≤ 0.026 |
| A9G U21C A60U | ≤ 0.026 |
| A9U G10C C75G G85A A87C | ≤ 0.026 |
| A9C G78C G86U A89G | ≤ 0.026 |
| A9U A24C U58G A62C G85U G88A | ≤ 0.026 |
| A9U A14G G26C | ≤ 0.026 |
| A9U G59A U76A | ≤ 0.026 |
| A9G A33G U35G G84A | ≤ 0.026 |
| A9C C68U G78C | 0.0334 |
